{"source": "patent US5432264A", "about": "(priority 1987, dated 1995)", "system": "HSV", "note": "Peptide text beside a SMILES is read from it. * marks the point of attachment. Cbz = O=C(OCc1ccccc1)*; CHN2 = [N-]=[N+]=C*", "data": [{"molecule": "CC(C)C[C@H](NC(=O)OCc1ccccc1)C(=O)N[C@H](C(=O)NCC(=O)C=[N+]=[N-])C(C)C", "note": "[Z-LVG-CHN2, N-benzyloxycarbonyl-leucyl-valyl-glycine diazomethyl ketone, reference compound] (Cbz-Leu-Val-Gly-CHN2)", "values": [{"measurement": "number of plaques", "result": "not reduced"}]}]}
